Experimental data taken from PubChem BioAssay AID1030 (National Center for Advancing Translational Sciences (NCATS), 2008).
Values joined by “and” are separate entries in the source; they are usually repeats but may differ in a detail not shown here. Equal entries are not always repeated. About 16,000 (7.3%) of roughly 220,000 compounds were called active. Inconclusive means that the source gave no clear call. Such entries were picked first, then a sample of the others. Calls come from the whole dose curve; as a rule, active = well fitted inhibition curve with a large enough effect (not every such curve was filed as active); inconclusive = small, poorly fitted or top-dose-only effect, or another doubt; inactive = no such curve, though single readings can be large or run the other way. A potency beside an inconclusive call is a rough fit, not a confirmed value.

Biological target: Aldehyde dehydrogenase 1A1 (Homo sapiens) (UniProt P00352)
Chain of UniProt P00352 (P00352 whole entry, looked up): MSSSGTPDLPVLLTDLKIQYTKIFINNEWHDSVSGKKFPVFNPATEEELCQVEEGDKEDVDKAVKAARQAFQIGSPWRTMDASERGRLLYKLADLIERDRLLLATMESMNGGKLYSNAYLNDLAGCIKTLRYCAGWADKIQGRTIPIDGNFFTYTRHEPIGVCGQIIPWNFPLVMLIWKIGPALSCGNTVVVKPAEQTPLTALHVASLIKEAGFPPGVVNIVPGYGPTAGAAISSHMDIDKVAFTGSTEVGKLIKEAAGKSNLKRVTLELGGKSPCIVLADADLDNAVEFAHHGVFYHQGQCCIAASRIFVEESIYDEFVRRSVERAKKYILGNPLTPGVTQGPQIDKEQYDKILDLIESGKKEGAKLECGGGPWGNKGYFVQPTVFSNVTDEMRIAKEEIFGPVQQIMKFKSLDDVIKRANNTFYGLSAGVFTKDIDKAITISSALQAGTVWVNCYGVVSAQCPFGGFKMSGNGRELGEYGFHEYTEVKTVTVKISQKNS
Experiment: qHTS Assay for Inhibitors of Aldehyde Dehydrogenase 1 (ALDH1A1);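 for activity, negative = inhibition: plate controls were no enzyme wells and a reference inhibitor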
Settings: Purified ALDH1A1, NADH fluorescence, propionaldehyde substrate; series mostly up to 75.3 µM; activity, negative = inhibition: at the top concentration
Potency is the fitted concentration of half-maximal effect; tags give direction and shape of the fitted curve.

Row | SMILES | Potency | activity, negative = inhibition
1 | Oc1ccc(/C=N/NC(=S)N2CCOCC2)cc1 | active: 14.1 µM | 
2 | O=C(CCCCCNC(=O)c1ccccc1)N=Nc1c(O)[nH]c2c(Br)cc(Br)cc12 | inconclusive: 17.8 µM [inhibitor, partial curve] | 
3 | CCOC(=O)C(C)/C(C)=N/NC(=O)c1cc2ccccc2cc1O (stereo not drawn) |  | inactive: 22.2%
4 | CCCCN1C(=O)C(CC(=O)NCC)SC1=Nc1ccccc1 (stereo not drawn) | inconclusive: 15.8 µM [inhibitor, partial curve] | 
5 | CSCCC(NC(=O)c1ccc([N+](=O)[O-])cc1Cl)C(=O)OCC(=O)NCCCc1ccccc1 (stereo not drawn) | inconclusive: 44.7 µM [inhibitor, single point] | 
6 | Cc1ccc(C)c(N(C(=O)c2snc(C(N)=O)c2N)C(C(=O)NCC2CCCO2)c2cccs2)c1 (stereo not drawn) | inconclusive: 22.4 µM [inhibitor, partial curve] | 
7 | CC(=O)NC(Cc1ccc(F)cc1)C(=O)NC1CCN(c2nnnn2-c2ccccc2)CC1 (stereo not drawn) | active: 1 µM | 
8 | O=c1cnc2cnc(Nc3ccccc3)nc2n1CCc1ccccc1 | inconclusive: 39.8 µM [inhibitor, single point] | 
9 | Oc1ccc(N=Cc2sc3ccccc3c2Cl)cc1 | active: 15 µM | 
10 | CCCCn1c(-c2csc(CCC)c2)n[nH]c1=S | inconclusive: 17.8 µM [inhibitor, partial curve, poor fit] | 
11 | CN(C)C(=O)CN(c1ccc(F)c(Cl)c1)S(C)(=O)=O | inconclusive: 39.8 µM [inhibitor, single point] | 
12 | Cn1c(-c2ccccc2)cnc1SCC(N)=O |  | inactive: 0.997%
13 | CC(O)CN1C(=O)C(CC(=O)Nc2ccc(Cl)cc2)SC1=Nc1ccccc1 (stereo not drawn) | active: 22.4 µM | 
14 | CCOc1ccc(C)cc1S(=O)(=O)N1CCCCC1 |  | inactive: 12.7%
15 | C=C1Cc2c(Cl)cc3[nH]c4c5c3c2[C@@]2(O)[C@@H]1C[C@@H]2C(C)(C)O[C@H]5[C@@H]1CC[C@@]2(O)[C@@]35O[C@@H]3[C@@H](O)[C@@H](C(=O)O)O[C@H]5CC[C@]2(C)[C@@]41C |  | inactive: -6.14%
16 | COc1ccc(Nc2cc(C)c3ccccc3n2)cc1 |  | inactive: 6.29%
17 | Cc1ccc2nc(CSc3nc(C)ccc3C#N)[nH]c2c1 | inconclusive: 31.6 µM [inhibitor, single point] | 
18 | CCC(=O)NNC(=S)NC(=O)c1ccc(C)cc1 | active: 20 µM | 
19 | O=C(CN1c2cccc3cccc(c23)S1(=O)=O)NCc1ccc2c(c1)OCO2 | inconclusive: 23.8 µM [inhibitor, partial curve] | 
20 | COc1ccc(-c2nnc(SCC(=O)N3CCCCC3)o2)c(OC)c1 | inconclusive: 39.8 µM [inhibitor, single point] | 
21 | O=C(c1ccc(S(=O)(=O)N2CCOCC2)cc1)N(c1ccccc1)C1C=CS(=O)(=O)C1 (stereo not drawn) | inconclusive: 3.55 µM [inhibitor, single point] | 
22 | CC(C)(C)c1ccc(/C=C2/SC(N3CCCC3)=NC2=O)cc1 | inconclusive: 35.5 µM [inhibitor, single point] | 
23 | S=C(NCCc1ccc(Cl)cc1)NCc1ccco1 | inconclusive: 39.8 µM [inhibitor, single point] | 
24 | COc1ccc(C2=NCC(CSc3nnnn3C)S2)cc1 (stereo not drawn) | inconclusive: 39.8 µM [inhibitor, single point] | 
25 | CC(C)OC(=O)/C(=C\c1cccc2ccccc12)NC(=O)c1ccccc1 |  | inactive: -10.8%

Row | SMILES | Potency | activity, negative = inhibition
26 | O=C(/C=C/c1ccccc1[N+](=O)[O-])NCc1ccccc1Cl | inconclusive: 22.4 µM [inhibitor, partial curve] | 
27 | COc1ccccc1N1CCN(c2ccc(-c3ccccc3)nn2)CC1 | inconclusive: 6.31 µM [inhibitor, single point] | 
28 | N#C/C(=C\c1ccccc1)C(=O)Nc1cccnc1 | inconclusive: 39.8 µM [inhibitor, single point] | 
29 | COC(=O)c1nc(-c2ccccc2)oc1N1CCOCC1 | inconclusive: 28.2 µM [inhibitor, partial curve] | 
30 | Cc1ccc(-n2nc3c(c2NC(=O)C(C)(C)C)CSC3)c(C)c1 | inconclusive: 25.1 µM [inhibitor, partial curve] | 
31 | CCOc1ccc(CCNC(=O)c2oc3c(c2C)-c2[nH]ncc2CC3)cc1OCC |  | inactive: 9.83%
32 | CS(=O)(=O)c1ccc(Cl)c(NC(=O)c2cccc(Br)c2)c1 |  | inactive: -11.1%
33 | CC1CCCCC1NC(=O)C1CCCN1S(=O)(=O)c1cccc2nsnc12 (stereo not drawn) |  | inactive: 0.711%
34 | N#Cc1ccsc1NC(=O)CSc1ncn[nH]1 |  | inactive: -7.84%
35 | COc1ccc(CC(=O)OCC(=O)N2N=C(c3ccccc3)CC2c2ccc(OC)cc2)cc1 (stereo not drawn) | inconclusive: 28.2 µM [inhibitor, partial curve] | 
36 | c1ccc(CN2CCN(C3=Nc4cccc5cccc3c45)CC2)cc1 | inconclusive: 8.91 µM [inhibitor, partial curve] | 
37 | Cc1cc2c(nc1C)CCCN2CC(O)CN1CCCc2nc(C)c(C)cc21 |  | inactive: 10.7% [at 13.5 µM]
38 | O=[N+]([O-])c1ccc(-c2csc3[n+]2CCS3)cc1 | inconclusive: 10 µM [inhibitor, partial curve] | 
39 | O=C(O)c1ccccc1C(=O)N(Cc1ccccc1)Cc1ccccc1 |  | inactive: 4.08%
40 | CC(C)n1c(Oc2ccc(F)cc2)nc2c1c(=O)n(C)c(=O)n2C |  | inactive: 0.103%
41 | CCC(CC)NC(=O)COC(=O)CCC(=O)c1ccc(Cl)cc1 |  | inactive: -8.63%
42 | COc1cc(OC)c(OC)cc1C#N |  | inactive: 6.31%
43 | Cc1ccccc1C(=N)c1ccccc1Cc1cccc2ccccc12 |  | inactive: -1.52% [at 13.5 µM]
44 | Cc1nc2nc(SCC(=O)C(C)(C)C)[nH]c2cc1Br | inconclusive: 7.94 µM [inhibitor, partial curve] | 
45 | Cc1nc2cc(F)ccc2n1C1CCN(C(=O)c2c(F)cccc2F)CC1 | inconclusive: 25.1 µM [inhibitor, partial curve] | 
46 | Cc1ccc(S(=O)(=O)Nc2ccccc2C(=O)Nc2sccc2C(=O)NN(C)C)cc1 | inconclusive: 15.8 µM [inhibitor, partial curve] | 
47 | Nn1c(Cc2cccc3ccccc23)nnc1SCCOc1ccc(Br)cc1 | inconclusive: 11.2 µM [inhibitor, partial curve] | 
48 | O=C(CSc1nc2ccccc2n1CC(=O)N1CCCC1)Nc1ccc2c(c1)OCO2 | inconclusive: 3.16 µM [inhibitor, partial curve] | 
49 | Cc1ccc(C(=O)N2CCN(C(=O)c3ccco3)CC2)cc1NC(=O)c1ccco1 | inconclusive: 39.8 µM [inhibitor, single point] | 
50 | Cc1ccccc1OCCNC(=S)Nc1ccccc1 |  | inactive: 7.65%

Row | SMILES | Potency | activity, negative = inhibition
51 | CCSc1nnc(-c2sc3nnc(-c4ccccc4)c(-c4ccccc4)c3c2N)o1 | inconclusive: 3.55 µM [inhibitor, full curve] | 
52 | CCOC(=O)C1CCCCN1Cc1cc(OC)ccc1OC (stereo not drawn) | active: 15.8 µM | 
53 | CCOC(=O)N1CCN(C(=O)CSc2nnc(-c3cccs3)o2)CC1 | inconclusive: 28.2 µM [inhibitor, partial curve] | 
54 | Cc1ccccc1OCCC(=O)OCC(=O)Nc1cc(S(=O)(=O)N2CCOCC2)ccc1Cl | active: 2.51 µM | 
55 | COc1ccc(/C=N/NC(=O)c2c(C)n(C)c3ccc(OC)cc23)c(OC)c1 | inconclusive: 39.8 µM [inhibitor, single point] | 
56 | Cn1c(=O)oc2cc(S(=O)(=O)NCc3ccccn3)ccc21 |  | inactive: -3.43%
57 | Cc1cc(S(=O)(=O)N2CCC(N3CCCCC3)CC2)ccc1-n1cnnn1 | active: 0.0282 µM | 
58 | CCOc1cc(/C=C/C(=O)O)ccc1OCCO |  | inactive: -2.88%
59 | Cc1cc2ccccn2c1C(=O)Nc1ccc(Cl)cc1 | inconclusive: 28.2 µM [inhibitor, partial curve] | 
60 | Cc1cc(NC(=O)CSc2nc(-c3cccs3)cc(C(F)(F)F)n2)no1 | inconclusive: 39.8 µM [inhibitor, single point] | 
61 | COc1ccc(OC)c(NC(=O)c2c(NC(=O)CCC(=O)O)sc3c2CCCCC3)c1 |  | inactive: -10.1%
62 | CCOC(=O)N(C)OC(=O)Nc1ccc(Cl)c(Cl)c1 | active: 3.98 µM | 
63 | Clc1nnc(NN=C2CCCC2)c2ccccc12 | active: 2.82 µM | 
64 | O=C1C2C3C=CC(C3)C2C(=O)N1c1ccc(Cc2ccncc2)cc1 (stereo not drawn) | inconclusive: 39.8 µM [inhibitor, single point] | 
65 | Nn1cc(-c2ccccc2)nc1SCC(=O)Nc1ccc(S(N)(=O)=O)cc1 | inconclusive: 35.5 µM [inhibitor, single point] | 
66 | CC(C)(C=O)Cc1cc(C(C)(C)C)c(O)c(C(C)(C)C)c1 | inconclusive: 35.5 µM [inhibitor, single point] and inconclusive: 20 µM [inhibitor, partial curve, poor fit] | 
67 | Cc1ccc(-c2nc3ccccc3c(=O)n2NC(=O)c2cccs2)cc1 | inconclusive: 25.1 µM [inhibitor, single point] | 
68 | CCCCSCc1ccc(C(=O)O)o1 |  | inactive: 5.48%
69 | O=C(Nc1ccc2sccc2c1)c1ccc(Cl)s1 | inconclusive: 0.891 µM [inhibitor, single point] | 
70 | COc1cc(/C=C\C(=O)Nc2cc(=O)n(C)c(=O)n2C)cc(OC)c1OC | inconclusive: 35.5 µM [inhibitor, single point] | 
71 | C=CCn1c(NC(=O)c2ccccc2Cl)c(C#N)c2nc3ccccc3nc21 | inconclusive: 25.1 µM [inhibitor, partial curve] | 
72 | CCN(CC)S(=O)(=O)c1cc(NC(=O)CSc2nc3c(cc2C#N)C(=O)CC(C)(C)C3)ccc1C | inconclusive: 3.98 µM [inhibitor, full curve] | 
73 | Cc1cc(C)cc(C(=O)Nc2ccc(N3CCCC3)cc2)c1 | inconclusive: 35.5 µM [inhibitor, partial curve, poor fit] | 
